Results as given in patent publication US10322110B2, “Imidazole-based antimicrobial agents” (priority 2014, dated 2019).

Tests used:
[1] = system: Human keratinocytes (HaCaT cells); assay: human cytotoxicity assay in vitro (CellTiter-Glo), keratinocytes; assay type: cell-based; set-up: key: 4: compounds inhibiting cell viability 50% or more at concentrations of 5 μM or less; 3: compounds causing more than 50% inhibition of cell viability at 10 μM; compounds causing >50% inhibition of cell viability at 25 μM; 1: compounds causing less than 50% inhibition of cell viability at 50 μM; compounds not causing loss of cell viability at concentrations of 50 μM or higher; settings: cytotoxicity class
[2] = system: Streptococcus pneumoniae (Chester, ATCC49619); assay: broth microdilution MIC assay, Streptococcus pneumoniae; assay type: cell-based; settings: MIC100 class score, 24 h
[3] = system: Human hepatocytes (HepaRG cells); assay: human cytotoxicity assay in vitro (CellTiter-Glo), hepatocytes; assay type: cell-based; settings: cytotoxicity class
[4] = system: Staphylococcus aureus MSSA (Newman); assay: broth microdilution MIC assay, Staphylococcus aureus MSSA (Newman); assay type: cell-based; settings: MIC100 class score, 24 h
[5] = system: Escherichia coli TolC mutant strain ΔtoIC (K12 b3035 TolC; JW5503); assay type: cell-based; settings: MIC activity class
[6] = system: Staphylococcus aureus MRSA (COL); assay: broth microdilution MIC assay, Staphylococcus aureus MRSA (COL); assay type: cell-based; settings: MIC100 class score, 24 h
[7] = system: Mycobacterium smegmatis (mc(2)155, ATCC700084); assay: broth microdilution MIC assay, Mycobacterium smegmatis; settings: MIC activity class

| SMILES | cytotoxicity cell line K (keratinocytes) [1] | Antibacterial activity Streptococcus pneumoniae [2] | cytotoxicity cell line H (hepatocytes) [3] | Antibacterial activity Staphylococcus aureus (MSSA) [4] | Antibacterial activity EC Δ (Escherichia coli ΔtoIC) [5] | Antibacterial activity Staphylococcus aureus (MRSA) [6] | Antibacterial activity MS (Mycobacterium smegmatis) [7] |
| --- | --- | --- | --- | --- | --- | --- | --- |
| Cc1[nH]c(-c2ccc(-c3ccc(C(F)(F)F)cc3)o2)nc1-c1ccc(Cl)cc1 [Compound 47] | 2 | 4 (MIC of 1 μg/ml or less for preventing streptococcal growth 100% (MIC100)) | 1 (compounds not causing a loss of viability at concentrations between 25 and 50 μM) | 4 (MIC of ≥1 μg/ml to 3 μg/ml for preventing staphylococcal growth 100% (MIC100)) | – | – | – |
| Cc1[nH]c(-c2ccc(-c3ccccc3F)s2)nc1-c1ccccc1 [Compound 15] | – | – | 1 (compounds not causing a loss of viability at concentrations between 25 and 50 μM) | – | 1 (MIC100 of 20-50 μg/ml or an MIC50 of <10 μg/ml) | – | – |
| Cc1nc(-c2ccc(-c3ccccc3OC(F)(F)F)o2)[nH]c1-c1ccccc1Cl [Compound 19] | 0 (compounds not causing loss of cell viability at concentrations of 50 μM or higher) | 4 (MIC of 1 μg/ml or less for preventing streptococcal growth 100% (MIC100)) | – | 1 (MIC100 of 20-50 μg/ml or an MIC50 of <10 μg/ml) | – | 1 (MIC100 of 20-50 μg/ml or an MIC50 of <10 μg/ml) | – |
| Cc1[nH]c(-c2ccc(-c3cccc(F)c3C)o2)nc1-c1ccccc1 [Compound 60] | – | – | – | – | 1 (MIC100 of 20-50 μg/ml or an MIC50 of <10 μg/ml) | – | – |
| Cc1[nH]c(-c2ccc(-c3ccccc3OC(F)(F)F)o2)nc1-c1ccccc1 [Compound 18] | – | – | – | – | 1 (MIC100 of 20-50 μg/ml or an MIC50 of <10 μg/ml) | – | – |
| Cc1[nH]c(-c2ccc(-c3ccc(Cl)c(C(F)(F)F)c3)o2)nc1-c1ccc(F)cc1 [Compound 42] | 3 | 4 (MIC of 1 μg/ml or less for preventing streptococcal growth 100% (MIC100)) | 1 (compounds not causing a loss of viability at concentrations between 25 and 50 μM) | 4 (MIC of ≥1 μg/ml to 3 μg/ml for preventing staphylococcal growth 100% (MIC100)) | – | – | 1 (MIC100 of 20-50 μg/ml or an MIC50 of <10 μg/ml) |
| Cc1[nH]c(-c2ccc(-c3ccc(C(F)(F)F)cc3)s2)nc1-c1ccccc1 [Compound 46] | 1 | – | 1 (compounds not causing a loss of viability at concentrations between 25 and 50 μM) | – | – | – | 1 (MIC100 of 20-50 μg/ml or an MIC50 of <10 μg/ml) |
| Cc1[nH]c(-c2ccc(-c3ccccc3C(F)(F)F)o2)nc1-c1ccccc1 [Compound 17] | – | – | – | – | 1 (MIC100 of 20-50 μg/ml or an MIC50 of <10 μg/ml) | – | – |
| CCc1ccc(-c2[nH]c(-c3ccc(-c4ccccc4C(F)(F)F)o3)nc2C)cc1 [Compound 28] | 0 (compounds not causing loss of cell viability at concentrations of 50 μM or higher) | – | 1 (compounds not causing a loss of viability at concentrations between 25 and 50 μM) | 1 (MIC100 of 20-50 μg/ml or an MIC50 of <10 μg/ml) | – | – | – |
| Cc1ccccc1-c1cnc(-c2ccc(-c3ccccc3C(F)(F)F)o2)[nH]1 [Compound 69] | – | 4 (MIC of 1 μg/ml or less for preventing streptococcal growth 100% (MIC100)) | – | – | 1 (MIC100 of 20-50 μg/ml or an MIC50 of <10 μg/ml) | – | – |
| FC(F)(F)Oc1ccccc1-c1ccc(-c2nc(Cl)c(-c3ccccc3)[nH]2)o1 [Compound 64] | 3 | 4 (MIC of 1 μg/ml or less for preventing streptococcal growth 100% (MIC100)) | – | – | – | – | 1 (MIC100 of 20-50 μg/ml or an MIC50 of <10 μg/ml) |
| Cc1nc(-c2ccc(-c3ccc(Cl)c(OC(F)(F)F)c3)o2)[nH]c1-c1ccc(Cl)cc1 [Compound 44] | – | 4 (MIC of 1 μg/ml or less for preventing streptococcal growth 100% (MIC100)) | – | 4 (MIC of ≥1 μg/ml to 3 μg/ml for preventing staphylococcal growth 100% (MIC100)) | – | – | 1 (MIC100 of 20-50 μg/ml or an MIC50 of <10 μg/ml) |
| Cc1nc(-c2ccc(-c3ccc(Cl)c(OC(F)(F)F)c3)o2)[nH]c1-c1ccccc1 [Compound 41] | 2 | – | – | – | – | – | 1 (MIC100 of 20-50 μg/ml or an MIC50 of <10 μg/ml) |
